Several values for one entry are separate records, joined by “and”; a condition that tells them apart may be missing. Equal values may be shown once. The inconclusive results got no clear call from the source; some entries with a clear call stand among them for comparison. For part of these data: Potencies of inconclusive entries are doubtful fits and often do not repeat. Activity calls are given as the source filed them. Unless noted, the call rests on the fitted dose curve; in most records, active means well fitted curve in the direction sought with a large enough effect in the repeat runs; inconclusive means weak or mixed curves; inactive means no such curve, though single readings can be large; an effect the other way counts as inactive or inconclusive.
Assays:
[1] = target: Peroxisome proliferator-activated receptor gamma (Homo sapiens) (UniProt P37231); test: qHTS assay to identify small molecule antagonists of the peroxisome proliferator-activated receptor gamma (PPARg) signaling pathway (AID 743191; calls by dose curve; further: nearly all actives have a fitted effect of over 30% in size; further: potency means the concentration at half of the fitted maximal effect; on ratio activity, negative = inhibition: on the % scale 0 is the no-effect control and ±100 the full control effect); settings: HEK293H PPARg-UAS-bla, beta-lactamase ratio, antagonist, 17 h; ratio activity, negative = inhibition: at 62.6 µM (top of the series) unless noted
Summary of the method: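 GeneBLAzer PPARg UAS-bla HEK293H cells, 5 h post-plating, exposed to compounds 17 h at 37C. LiveBLAzer B/G FRET substrate added for 1 h at room temperature; beta-lactamase reporter read by fluorescence intensity.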

[2] = qHTS assay to identify small molecule antagonists of the peroxisome proliferator-activated receptor gamma (PPARg) signaling pathway - cell viability counter screen (AID 743194); settings: PPARg-bla HEK293H viability, CellTiter-Glo luminescence, 17 h; Potency: co-treated with 50 nM rosiglitazone unless noted; activity change, negative = cytotoxicity: at 62.6 µM (top of the series), co-treated with 50 nM rosiglitazone unless noted; further: nearly all actives have a fitted effect of over 55% in size; further: potency means the concentration at half of the fitted maximal effect; on activity change, negative = cytotoxicity: on the % scale 0 is the no-effect control and ±100 the full control effect
Summary of the method: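 Cytotoxicity counter screen in PPARg-bla HEK293H cells, same wells as reporter assay. Compounds plus 50 nM rosiglitazone (final) for 17 h at 37 C, then viability read by CellTiter-Glo luminescence.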

[3] = target: Peroxisome proliferator-activated receptor delta (Homo sapiens) (UniProt Q03181); test: qHTS assay to identify small molecule antagonists of the peroxisome proliferator-activated receptor delta (PPARd) signaling pathway (AID 743215; active means well fitted inhibition curve with a large enough effect in the signal ratio in the repeat runs, not every such curve was filed as active; inconclusive means weak or mixed curves, or effect the other way; inactive means no such curve, though single readings can be large or run the other way; the % refers to the signal ratio;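 further: cells stimulated with agonist L165041 at 300 nM final during compound exposure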; further: potency means the concentration at half of the fitted maximal effect; on ratio activity, negative = inhibition: on the % scale 0 is the no-effect control and ±100 the full control effect); settings: HEK293H PPARd-UAS-bla, beta-lactamase FRET ratio, antagonist, 17 h; ratio activity, negative = inhibition: at 62 µM (top of the series) unless noted
Summary of the method: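 PPARd-bla HEK293H cells (UAS-bla reporter) preincubated 5 h, then given compound plus 300 nM final L165041 agonist for 17 h at 37 C. Beta-lactamase activity read by LiveBLAzer B/G FRET substrate fluorescence after 2 h at room temperature.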

[4] = target: Vitamin D3 receptor (Homo sapiens) (UniProt P11473); test: qHTS assay to identify small molecule antagonists of the vitamin D receptor (VDR) signaling pathway (AID 743223; active means well fitted inhibition curve with a large enough effect in the signal ratio in the repeat runs, not every such curve was filed as active; inconclusive means weak or mixed curves, or effect the other way; inactive means no such curve, though single readings can be large or run the other way; the % refers to the signal ratio; further: potency means the concentration at half of the fitted maximal effect); settings: VDR-UAS-bla HEK293T, beta-lactamase FRET ratio, 16 h; activity change, negative = inhibition: at 61 µM (top of the series) unless noted
Summary of the method: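 Beta-lactamase reporter read-out: FRET substrate fluorescence after 2 h at room temperature, following 16 h exposure of VDR-bla cells to test compound plus 3 nM (final) 1alpha,25-dihydroxyvitamin D3 agonist at 37C.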

[5] = qHTS assay to identify small molecule antagonists of the vitamin D receptor (VDR) signaling pathway - cell viability counter screen (AID 743225); settings: VDR-bla HEK293T viability, CellTiter-Glo luminescence, 16 h; viability change, negative = cytotoxic: at 61 µM (top of the series) unless noted; further: nearly all actives have a fitted effect of over 50% in size; further: potency means the concentration at half of the fitted maximal effect
Summary of the method: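 Viability counter screen run in the same wells as the beta-lactamase reporter assay: HEK 293T VDR-UAS-bla cells, 16 h compound exposure at 37C with 3 nM (final) 1-alpha,25-dihydroxyvitamin D3. CellTiter-Glo luminescence, 30 min, room temperature.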

[6] = qHTS assay for small molecule agonists of the antioxidant response element (ARE) signaling pathway (AID 743202; active means well fitted activation curve with a large enough effect in the signal ratio in the repeat runs, not every such curve was filed as active; inconclusive means weak or mixed curves, or effect the other way; inactive means no such curve, though single readings can be large or run the other way; the % refers to the signal ratio; further: potency means the concentration at half of the fitted maximal effect); settings: HepG2 ARE-bla reporter, beta-lactamase FRET, 16 h; activation: at 73.3 µM (top of the series) unless noted
Summary of the method: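 ARE-bla HepG2 cells (beta-lactamase reporter under the antioxidant response element), plated 5 hours, then exposed to compounds 16 hours at 37 C. LiveBLAzer B/G FRET substrate added for 2 hours at room temperature; fluorescence intensity read.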

[7] = qHTS assay for small molecule activators of the heat shock response signaling pathway - cell viability counter screen (AID 743209); settings: HSE-bla HeLa viability, CellTiter-Glo luminescence, 5 h; activity change, negative = cytotoxicity: at 62.6 µM (top of the series) unless noted; further: potency means the concentration at half of the fitted maximal effect; nearly all actives have a fitted effect of over 50% in size
Summary of the method: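 HSE-bla HeLa cells plated overnight, then exposed to Tox21 compounds (23 nL in DMSO) for 5 h at 37 C. After the bla reporter read, CellTiter-Glo was added in the same wells and luminescence read after 30 min at room temperature.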

[8] = target: Peroxisome proliferator-activated receptor delta (Homo sapiens) (UniProt Q03181); test: qHTS assay to identify small molecule agonists of the peroxisome proliferator-activated receptor delta (PPARd) signaling pathway (AID 743212; calls by dose curve; further: potency means the concentration at half of the fitted maximal effect); settings: HEK293H PPARd-UAS-bla, beta-lactamase FRET ratio, 17 h; activation: at 62.6 µM (top of the series) unless noted
Summary of the method: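 GeneBLAzer UAS-bla HEK293H cells carrying a PPARδ construct were exposed to compounds at 37 °C. Beta-lactamase activity was read by FRET fluorescence after 2 h at room temperature with LiveBLAzer B/G substrate.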

[9] = qHTS assay to identify small molecule antagonists of the peroxisome proliferator-activated receptor delta (PPARd) signaling pathway - cell viability counter screen (AID 743213); settings: PPARd-bla HEK293H viability, CellTiter-Glo luminescence, 17 h; viability change, negative = cytotoxic: at 62 µM (top of the series) unless noted; further: nearly all actives have a fitted effect of over 50% in size; further: potency means the concentration at half of the fitted maximal effect
Summary of the method: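 Same-well viability: cells pre-incubated 5 h, dosed with compound plus 300 nM L165041, kept 17 h at 37 C, FRET substrate 2 h RT, then CellTiter-Glo 30 min RT and luminescence.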

[10] = qHTS assay to identify small molecule agonists of the farnesoid-X-receptor (FXR) signaling pathway - cell viability counter screen (AID 743218); settings: FXR-bla HEK293T viability, CellTiter-Glo luminescence, 16 h; viability change, negative = cytotoxic: at 62.6 µM (top of the series) unless noted; further: nearly all actives have a fitted effect of over 45% in size; further: potency means the concentration at half of the fitted maximal effect
Summary of the method: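 FXR-UAS-bla HEK 293T cells exposed to compounds for 16 h at 37C. Cytotoxicity read in the same wells by CellTiter-Glo luminescence after 30 min at room temperature, following the beta-lactamase FRET read.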

[11] = target: Vitamin D3 receptor (Homo sapiens) (UniProt P11473); test: qHTS assay to identify small molecule agonists of the vitamin D receptor (VDR) signaling pathway (AID 743222; calls by dose curve; further: on the % scale 0 is the no-effect control and ±100 the full control effect); settings: HEK293T VDR-UAS-bla, beta-lactamase FRET ratio, 16 h; activation: at 63.5 µM (top of the series) unless noted
Summary of the method: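 VDR-bla cells plated 4 h at 37 C, then exposed to compounds for 16 h at 37 C. Beta-lactamase reporter activity measured by fluorescence after 2 h room-temperature loading with LiveBLAzer B/G FRET substrate.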

[12] = qHTS assay to identify small molecule agonists of the vitamin D receptor (VDR) signaling pathway - cell viability counter screen (AID 743224); further: nearly all actives have a fitted effect of over 50% in size; further: potency means the concentration at half of the fitted maximal effect
Summary of the method: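 VDR-bla cells, 4 h after plating, exposed to compounds for 16 h at 37C; viability then read in the same wells as CellTiter-Glo luminescence after 30 min at room temperature, following the bla FRET read.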

[13] = qHTS assay for small molecule activators of the heat shock response signaling pathway (AID 743210; active means well fitted activation curve with a large enough effect in the signal ratio in the repeat runs, with a control signal flat, not every such curve was filed as active; inconclusive means weak or mixed curves; the % refers to the signal ratio; further: potency means the concentration at half of the fitted maximal effect); settings: HeLa HSE-bla reporter, beta-lactamase ratio, 5 h; activation: at 62.6 µM (top of the series)
Summary of the method: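 HSE-bla HeLa cells (beta-lactamase reporter under heat shock response elements), plated overnight, then exposed to compounds 5 h at 37 C; LiveBLAzer B/G FRET substrate added, 2.5 h at room temperature, fluorescence intensity read.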

[14] = qHTS assay for small molecule agonists of the antioxidant response element (ARE) signaling pathway - cell viability counter screen (AID 743203; calls by dose curve; further: potency means the concentration at half of the fitted maximal effect; nearly all actives have a fitted effect of over 55% in size)
Summary of the method: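 ARE-bla HepG2 cells were plated, rested 5 h at 37C/5% CO2, then exposed to compounds in DMSO for 16 h. Viability was read as CellTiter-Glo luminescence after 30 min at room temperature, in the same wells as the ARE screen.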

[15] = qHTS assay to identify small molecule agonists of the peroxisome proliferator-activated receptor delta (PPARd) signaling pathway - cell viability counter screen (AID 743211); settings: PPARd-bla HEK293H viability, CellTiter-Glo luminescence, 17 h; activity change, negative = cytotoxicity: at 62.6 µM (top of the series) unless noted; further: potency means the concentration at half of the fitted maximal effect; nearly all actives have a fitted effect of over 55% in size
Summary of the method: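 Read-out: CellTiter-Glo luminescence, 30 min RT, measured in the same wells as the beta-lactamase reporter. Cells: GeneBLAzer PPAR delta UAS-bla HEK293H, 3000 cells/well, compound exposure 17 h at 37C.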

[16] = target: Bile acid receptor (Homo sapiens) (UniProt Q96RI1); test: qHTS assay to identify small molecule antagonists of the farnesoid-X-receptor (FXR) signaling pathway (AID 743217; active means well fitted inhibition curve with a large enough effect in the signal ratio in the repeat runs, not every such curve was filed as active; inconclusive means weak or mixed curves, or effect the other way; inactive means no such curve, though single readings can be large or run the other way; the % refers to the signal ratio; further: potency means the concentration at half of the fitted maximal effect); settings: HEK293T FXR-UAS-bla, beta-lactamase ratio, CDCA-stimulated, 16 h; activity change, negative = inhibition: at 62.6 µM (top of the series) unless noted
Summary of the method: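 FXR-UAS-bla HEK 293T cells (beta-lactamase reporter) given compound plus chenodeoxycholic acid (50 uM final), 16 h at 37C. LiveBLAzer B/G FRET substrate added for 2 h at room temperature; fluorescence read.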

[17] = target: Bile acid receptor (Homo sapiens) (UniProt Q96RI1); test: qHTS assay to identify small molecule agonists of the farnesoid-X-receptor (FXR) signaling pathway (AID 743220; active means well fitted activation curve with a large enough effect in the signal ratio in the repeat runs, not every such curve was filed as active; inconclusive means weak or mixed curves, or effect the other way; the % refers to the signal ratio; further: potency means the concentration at half of the fitted maximal effect); settings: HEK293T FXR-UAS-bla, beta-lactamase FRET ratio, 16 h; activation: at 62.6 µM (top of the series) unless noted
Summary of the method: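 Beta-lactamase reporter under UAS control in GeneBLAzer FXR HEK 293T cells (5000/well) measured with LiveBLAzer FRET substrate after 2 h at room temperature. Compound exposure lasted 16 h at 37C.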
Tags describe the fitted curve by direction and shape or compound fluorescence and quenching.

UniProt Q96RI1, sequence (Q96RI1 whole entry, looked up): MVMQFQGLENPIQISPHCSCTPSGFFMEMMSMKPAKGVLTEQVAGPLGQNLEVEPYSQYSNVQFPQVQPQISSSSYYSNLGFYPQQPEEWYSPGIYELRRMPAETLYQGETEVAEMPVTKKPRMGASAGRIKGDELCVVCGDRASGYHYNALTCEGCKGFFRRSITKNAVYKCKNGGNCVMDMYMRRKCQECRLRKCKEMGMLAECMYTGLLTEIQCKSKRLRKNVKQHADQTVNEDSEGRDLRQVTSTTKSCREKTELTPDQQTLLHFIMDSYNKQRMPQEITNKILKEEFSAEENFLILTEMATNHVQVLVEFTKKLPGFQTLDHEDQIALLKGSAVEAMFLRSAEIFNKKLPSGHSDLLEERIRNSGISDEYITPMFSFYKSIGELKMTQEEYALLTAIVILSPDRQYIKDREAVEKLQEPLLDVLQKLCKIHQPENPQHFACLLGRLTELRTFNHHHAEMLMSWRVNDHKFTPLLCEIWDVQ
UniProt P11473, sequence (P11473 whole entry, looked up): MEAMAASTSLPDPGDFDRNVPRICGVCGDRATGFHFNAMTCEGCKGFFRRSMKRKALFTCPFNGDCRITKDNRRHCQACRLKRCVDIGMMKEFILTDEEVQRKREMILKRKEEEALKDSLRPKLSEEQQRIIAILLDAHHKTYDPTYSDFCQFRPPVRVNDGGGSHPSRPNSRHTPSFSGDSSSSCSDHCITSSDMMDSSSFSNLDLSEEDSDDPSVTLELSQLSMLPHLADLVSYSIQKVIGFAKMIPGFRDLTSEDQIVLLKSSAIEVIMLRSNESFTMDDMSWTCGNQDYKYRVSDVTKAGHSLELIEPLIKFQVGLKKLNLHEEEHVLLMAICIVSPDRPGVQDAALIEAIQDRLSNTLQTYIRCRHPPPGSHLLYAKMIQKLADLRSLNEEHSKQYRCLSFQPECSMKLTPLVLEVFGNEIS
UniProt Q03181, sequence (Q03181 whole entry, looked up): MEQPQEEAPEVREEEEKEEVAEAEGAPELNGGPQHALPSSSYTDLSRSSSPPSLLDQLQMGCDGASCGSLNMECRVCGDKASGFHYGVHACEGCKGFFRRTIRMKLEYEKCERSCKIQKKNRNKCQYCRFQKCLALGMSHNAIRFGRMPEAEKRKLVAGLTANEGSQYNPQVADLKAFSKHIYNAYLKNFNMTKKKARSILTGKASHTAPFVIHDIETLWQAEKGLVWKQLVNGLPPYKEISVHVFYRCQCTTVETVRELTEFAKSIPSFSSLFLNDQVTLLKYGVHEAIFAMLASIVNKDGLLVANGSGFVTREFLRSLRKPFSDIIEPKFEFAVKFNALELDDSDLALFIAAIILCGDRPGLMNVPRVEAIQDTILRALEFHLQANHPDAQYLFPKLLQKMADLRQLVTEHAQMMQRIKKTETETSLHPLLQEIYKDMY
UniProt P37231, sequence (P37231 whole entry, looked up): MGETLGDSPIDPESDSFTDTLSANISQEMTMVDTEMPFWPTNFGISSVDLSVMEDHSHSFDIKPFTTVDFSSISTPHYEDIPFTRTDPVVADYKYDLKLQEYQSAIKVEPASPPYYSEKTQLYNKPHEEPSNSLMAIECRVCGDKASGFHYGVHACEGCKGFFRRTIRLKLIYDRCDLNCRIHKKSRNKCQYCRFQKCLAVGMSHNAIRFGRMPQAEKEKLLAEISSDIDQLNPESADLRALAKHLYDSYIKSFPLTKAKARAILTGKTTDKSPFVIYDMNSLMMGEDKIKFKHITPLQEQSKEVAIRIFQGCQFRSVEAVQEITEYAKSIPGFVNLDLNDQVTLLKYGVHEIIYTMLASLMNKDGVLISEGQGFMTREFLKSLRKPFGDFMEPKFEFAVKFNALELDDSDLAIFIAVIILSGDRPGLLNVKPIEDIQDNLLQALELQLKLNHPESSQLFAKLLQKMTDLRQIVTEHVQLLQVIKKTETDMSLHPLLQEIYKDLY

Compound: CCCCCON=O
- Potency [1]: inactive
- Potency [2]: inactive
- Potency [3]: inactive
- Potency [4]: inactive
- Potency [5]: inactive

Compound: Nc1c(Cl)c(Cl)c(Cl)c(Cl)c1Cl
- ratio activity, negative = inhibition [1]: inconclusive: 24%
- Potency [2]: inconclusive: 2.45 µM [rising, full curve]
- activation [6]: inconclusive: 16.8% [phenotype inactive]
- Potency [7]: inconclusive: 0.0055 µM [rising, full curve, poor fit]
- Potency [8]: inconclusive: 9.77 µM [phenotype inactive, full curve, poor fit]
- Potency [9]: inconclusive: 5.49 µM [cytotoxic, single point]
- Potency [3]: inconclusive: 21.9 µM [fluorescent]
- Potency [10]: inconclusive: 0.0062 µM [rising, full curve, poor fit]
- activation [11]: inconclusive: 1.6%
- Potency [4]: inconclusive: 6.92 µM [activator, partial curve, poor fit]
- Potency [12]: inconclusive: 5.45 µM [cytotoxic, single point]

Compound: CN(N=O)c1ccccc1
- ratio activity, negative = inhibition [1]: inconclusive: 16.1%
- Potency [2]: inactive
- Potency [11]: inactive

Compound: OC(c1ccc(Cl)cc1)(c1cncnc1)c1ccccc1Cl (centres undefined)
- Potency [1]: inconclusive: 55.9 µM [inhibitor] and active: 54.9 µM
- Potency [2]: inconclusive: 54.9 µM [cytotoxic, single point]
- Potency [13]: inconclusive: 1.74 µM [activator]

Compound: Cc1ccc(N)cc1N
- Potency [1]: inactive
- Potency [2]: inconclusive: 0.0069 µM [rising, full curve, poor fit]
- Potency [6]: inactive
- activation [11]: inconclusive: 6.58%
- Potency [12]: inactive

Compound: Cc1ccccc1OP(=O)(Oc1ccccc1C)Oc1ccccc1C
- Potency [1]: inactive
- Potency [2]: inconclusive: 61.9 µM [cytotoxic, single point]
- Potency [6]: inconclusive: 54.7 µM [rising, partial curve]
- Potency [14]: inconclusive: 61.4 µM [cytotoxic, partial curve, poor fit]
- Potency [15]: inconclusive: 43.8 µM [cytotoxic, partial curve]
- viability change, negative = cytotoxic [9]: inconclusive: -35.3% [cytotoxic] [at 80.4 µM]
- ratio activity, negative = inhibition [3]: inconclusive: -32% [at 80.4 µM]
- Potency [16]: inconclusive: 55.2 µM [rising, single point]
- activation [11]: inconclusive: -37.1% [at 81.1 µM]
- Potency [12]: inconclusive: 55.2 µM [cytotoxic, single point]

Compound: Oc1ccc(Cl)c(Cl)c1
- ratio activity, negative = inhibition [1]: inconclusive: -15.1%
- Potency [2]: inconclusive: 1.71 µM [rising, full curve, poor fit]
- Potency [6]: inconclusive: 17 µM [rising, full curve, poor fit]
- activity change, negative = inhibition [4]: inconclusive: 20.1%
- Potency [5]: inactive

Compound: O=C(OC1CCCCC1)c1ccccc1C(=O)OC1CCCCC1
- Potency [1]: inconclusive: 65 µM [inhibitor, single point]
- Potency [2]: inconclusive: 0.366 µM [cytotoxic, full curve, poor fit]
- Potency [6]: inconclusive: 51.2 µM
- Potency [9]: inconclusive: 57.9 µM [cytotoxic, single point]
- Potency [16]: inconclusive: 51.6 µM [inhibitor]
- activation [17]: inconclusive: 11.8% [at 81.1 µM]
- activation [11]: inconclusive: -30.3% [at 81.1 µM]
- Potency [12]: active: 46 µM
- Potency [5]: active: 32.6 µM

Compound: CC1=C(C(=O)Nc2ccccc2)SCCO1
- ratio activity, negative = inhibition [1]: inconclusive: 10.6% [at 81.1 µM]
- Potency [2]: inconclusive: 17.7 µM [cytotoxic, full curve, poor fit]
- Potency [6]: inconclusive: 30.6 µM
- Potency [8]: inconclusive: 14 µM [rising, partial curve, poor fit]
- Potency [9]: inactive
- Potency [4]: inactive
- Potency [12]: inconclusive: 61.6 µM [cytotoxic, partial curve, poor fit]
- Potency [5]: inconclusive: 2.19 µM [cytotoxic, single point]

Compound: Nc1ccc(Br)cc1
- ratio activity, negative = inhibition [1]: inconclusive: 30.6% and inconclusive: -19.4%
- Potency [2]: inactive
- activation [6]: inconclusive: 5.68%
- Potency [13]: inconclusive: 54.9 µM
- Potency [15]: inconclusive: 12.3 µM [cytotoxic, full curve]
- activity change, negative = inhibition [16]: inconclusive: -18.2%
- Potency [10]: inactive and inconclusive: 6.92 µM [cytotoxic, full curve, poor fit]
- Potency [17]: inconclusive: 61.7 µM [rising, single point]
- Potency [12]: inconclusive: 7.75 µM [cytotoxic, partial curve, poor fit] and inconclusive: 5.49 µM [cytotoxic, partial curve]
- Potency [5]: inconclusive: 12.3 µM [cytotoxic, single point]

Source: PubChem BioAssay (Tox21)
